# About 150 (0.038%) of roughly 390,000 compounds were called active. The shares of active, inactive and inconclusive entries below differ from those in the screen. The call rests on the fitted dose curve; in most records, active means well fitted inhibition curve with a large enough effect; inconclusive means small, poorly fitted or top-dose-only effect; inactive means no such curve, though single readings can be large or run the other way. Potencies of inconclusive entries are doubtful fits and often do not repeat.
# Target: Regulator of G-protein signaling 4 (Homo sapiens) (UniProt P49798)
# UniProt P49798, sequence (P49798 whole entry, looked up): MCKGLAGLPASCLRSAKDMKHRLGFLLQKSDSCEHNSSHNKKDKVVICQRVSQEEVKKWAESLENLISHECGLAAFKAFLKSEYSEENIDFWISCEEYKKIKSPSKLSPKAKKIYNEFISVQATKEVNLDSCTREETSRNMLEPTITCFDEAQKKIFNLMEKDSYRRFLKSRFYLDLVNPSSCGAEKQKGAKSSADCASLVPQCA
# Experiment: Inhibitors of Regulator of G Protein Signaling (RGS) 4: qHTS; further: nearly all actives have a fitted effect of over 75% in size
# Conditions: Transcreener GDP fluorescence polarization, RGS4-accelerated GTP hydrolysis; series mostly up to 114 µM; activity change, negative = inhibition: at the top concentration
# Summary of the method: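 MLSMR compounds (23 nl, pin-transferred) preincubated 10 min at room temperature with a 500nM (2x) first reagent, then RGS4 at 900nM (2x) plus Transcreener GDP mix added; fluorescence polarization (620/688 nm) read before and after 90 min at 30 °C.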
# On the % scale 0 is the no-effect control and ±100 the full control effect; potency means the concentration at half of the fitted maximal effect; tags describe the fitted curve by direction and shape.
SMILES,Potency,"activity change, negative = inhibition"
CCOc1cc2c(cc1OCC)C(C(=O)O)C(c1cc(Br)c(O)c(OC)c1)N(C)C2=O (stereo unspecified),"inconclusive: 89.1 µM [inhibitor, single point]",
O=C(Nc1ccc(-c2nc3ccc(NC(=O)c4cccs4)cc3[nH]2)cc1)c1cccs1,"inconclusive: 31.6 µM [inhibitor, full curve, poor fit]",
CC(=O)c1c(C)[nH]c(C(=O)OCC(=O)c2ccc3c(c2)NC(=O)CO3)c1C,"inconclusive: 17.8 µM [inhibitor, full curve, poor fit]",
Cc1ccc(NC(=O)c2sc3nc(CCl)[nH]c(=O)c3c2C)c(C)c1,"inconclusive: 70.8 µM [inhibitor, single point]",
O=c1c(O[C@H]2O[C@@H](CO)[C@H](O)[C@@H](O)[C@@H]2O)c(-c2ccc(O)cc2)oc2cc(O)cc(O)c12,,inactive: -5.98%
COc1ccccc1-c1cn[nH]c(=S)n1,"inconclusive: 56.2 µM [inhibitor, partial curve, poor fit]",
c1ccc(-c2nnc3sc(-c4csc5c4CCCC5)nn23)cc1,"inconclusive: 44.7 µM [inhibitor, partial curve, poor fit]",
O=C1CC(c2ccccc2)Cc2[nH]c(=O)c(-c3nc(-c4ccc(F)cc4)cs3)cc21 (stereo unspecified),,inactive: -15.9%
Cc1ccccc1-c1nc(CS(=O)CC(=O)NCCc2ccc(Cl)cc2)c(C)o1 (stereo unspecified),"inconclusive: 70.8 µM [inhibitor, single point]",
COc1ccc(CN(CCC(c2ccc(F)cc2)C2CCOC(C)(C)C2)C(=O)c2ccco2)cc1 (stereo unspecified),,inactive: -0.571%
COc1ccc(NC(=O)c2sc3nc[nH]c(=O)c3c2C)cc1,"inconclusive: 100 µM [inhibitor, partial curve, poor fit]",
CCOc1cccc(-c2nnc3sc(C4CCCCC4)nn23)c1,"inconclusive: 70.8 µM [inhibitor, partial curve, poor fit]",
CCOc1ccc(OCC)c(NC(=O)C2CCN(S(=O)(=O)c3c(C)[nH]c(=O)[nH]c3=O)CC2)c1,"inconclusive: 31.6 µM [inhibitor, full curve, poor fit]",
Cc1cc(Nc2ccc(O)cc2)n2c(nc3ccccc32)c1C#N,,inactive: 17.1%
O=[N+]([O-])c1ccc(Nc2nc(NCCO)nc(N3CCCC3)n2)cc1,,inactive: 5.3%
N#C/C(=C\c1ccc(O)c(O)c1)C(=O)Nc1ccccc1,"inconclusive: 21.2 µM [inhibitor, partial curve]",
CCN1CCC(O)(/C=C/c2ccc(C(C)C)cc2)C(C(=O)/C=C/c2ccc(C(C)C)cc2)C1 (stereo unspecified),"inconclusive: 31.6 µM [inhibitor, full curve, poor fit]",
CC1C=CCC2C(=O)N(c3ccc(Cl)cc3O)C(=O)C12 (stereo unspecified),"inconclusive: 31.6 µM [inhibitor, full curve, poor fit]",
O=[N+]([O-])c1ccc(N2CCN(C(=S)c3cccc([N+](=O)[O-])c3)CC2)cc1,"inconclusive: 44.7 µM [inhibitor, partial curve, poor fit]",
CCc1ccc(-c2nc(CN3CCCC(C(=O)NCCc4ccc(OC)c(OC)c4)C3)c(C)o2)cc1 (stereo unspecified),,inactive: -2.3%
Cc1ccc(/C=N/n2c(COc3ccccc3)n[nH]c2=S)cc1,"inconclusive: 17.8 µM [inhibitor, full curve, poor fit]",

SMILES,Potency,"activity change, negative = inhibition"
Cc1nnc(SC(C)C(=O)Nc2ccc(S(=O)(=O)N3CCCCCC3)cc2)s1 (stereo unspecified),,inactive: 7.67%
CCN(CC)S(=O)(=O)c1ccc(N2CCOCC2)c(NS(=O)(=O)c2ccc(C)c(C)c2)c1,"inconclusive: 100 µM [inhibitor, partial curve, poor fit]",
CCC1CN(C(=O)NCc2cccc(OC)c2)c2ccccc2O1 (stereo unspecified),inactive,
Oc1c(C(Nc2cccc(C(F)(F)F)c2)c2cccnc2)ccc2cccnc12 (stereo unspecified),"inconclusive: 79.4 µM [inhibitor, partial curve, poor fit]",
COc1ccc(CCNC(=O)c2cc3c(=O)n(C)c4cc(Cl)ccc4c3s2)cc1OC,,inactive: -11.9%
O=C1Nc2ccccc2N(O)N1c1ccc(S(=O)(=O)N2CCOCC2)cc1,"inconclusive: 79.4 µM [inhibitor, partial curve, poor fit]",
CC1CC(C)(C)CC2(C1)NC(=S)N(c1ccccc1)N2 (stereo unspecified),"inconclusive: 50.1 µM [inhibitor, partial curve, poor fit]",
CCOC(=O)c1ccc(N2C(=O)c3[nH]nc(-c4ccccc4)c3C2c2cccs2)cc1 (stereo unspecified),,inactive: 7.49%
Cc1ccc(C(=O)COc2nc(C)cc(C)c2C#N)cc1,,inactive: -13.4%
Cn1nc(C(F)(F)F)c(C#N)c1N1CCN(c2ccccn2)CC1,"inconclusive: 50.1 µM [inhibitor, partial curve, poor fit]",
CCOC(=O)c1c(C)[nH]c(C)c1S(=O)(=O)NCCN1CCN(c2cc(Cl)ccc2C)CC1,,inactive: -24.7%
Cc1cccc(NC(=S)NNC(=S)NCc2ccccc2)c1,"inconclusive: 35.5 µM [inhibitor, full curve, poor fit]",
O=C(Nc1cc(Br)ccc1O)c1cc(-c2ccco2)on1,"inconclusive: 17.8 µM [inhibitor, full curve, poor fit]",
CC1(C)Cc2c(sc(NC(=O)COc3cccc4ccccc34)c2C#N)C(C)(C)N1,"inconclusive: 25.1 µM [inhibitor, full curve, poor fit]",
Oc1c(C(c2ccccc2)N2CCOCC2)ccc2ccccc12 (stereo unspecified),"inconclusive: 20 µM [inhibitor, full curve, poor fit]",
C/C(CC(=O)Nc1cccc(C(F)(F)F)c1)=N\NC(=O)C1CCCCC1,"inconclusive: 100 µM [inhibitor, single point]",
NC(=O)c1sc2nc(N3CCOCC3)c3c(c2c1N)CCCC3,"inconclusive: 56.2 µM [inhibitor, partial curve, poor fit]",
CCN(C(=O)Cn1c(SCc2ccccc2F)nc2cccnc21)c1ccccc1,,inactive: -16.8%
N/C(=N\OC(=O)c1ccc(Br)cc1)c1ccncc1,,inactive: -5.13%
CCc1ccc[n+](-c2[nH]c(=O)sc2/C=N/NC([S-])=Nc2ccccc2)c1,"inconclusive: 17.8 µM [inhibitor, full curve, poor fit]",
